The campaign covered roughly 410,000 compounds. About 260 (0.063%) were called active. Inconclusive means that the source gave no clear call. Such entries were picked first, then a sample of the others. Calls come from the whole dose curve; as a rule, active = well fitted activation curve with a large enough effect; inconclusive = small, poorly fitted or top-dose-only effect; inactive = no such curve, though single readings can be large or run the other way. Potencies of inconclusive entries are left out as doubtful fits.
test: qHTS for compounds that reverse cellular toxicity of Amyloid beta (A-beta) peptide in yeast: Primary Screen; conditions: yeast expressing A-beta42, growth rescue, OD600, 48 h; growth rescue: at 46.1 µM (top of the series), 0% DMSO, 100% iron-clioquinol control; note: nearly all actives have a fitted effect of over 55% in size
Summary of the method: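 Growth rescue measured by 600 nm absorbance after 48 h yeast culture at 30 C with compound. Values normalized between DMSO and an equimolar ferric chloride plus clioquinol control.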
Potency is the fitted concentration of half-maximal effect; tags give direction and shape of the fitted curve.

Row | SMILES | Potency | growth rescue
1 | COc1cc(F)ccc1-c1cc(C(=O)NCc2ccc(C(F)(F)F)cc2)[nH]n1 | inconclusive [activator, single point] | –
2 | Cc1ccc(C2=NNC3(CCOC(C)(C)C3)S2)cc1 (stereo unspecified) | inconclusive [activator, full curve, poor fit] | –
3 | COc1ccc(CNC(=O)c2cccn2-c2nnc(N3CCCCC3)s2)c(OC)c1 | inconclusive [activator, partial curve] | –
4 | CCc1ccc(Nc2ncnc3nc[nH]c23)cc1 | – | inactive: -18.4%
5 | CCOc1ccccc1NC(=O)CCC(=O)Nc1nnc(C2CCCCC2)s1 | inconclusive [activator, full curve] | –
6 | C/C(=N\Nc1nc(C)cc(-c2ccccc2)n1)c1ccc(O)cc1 | – | inactive: 14.1%
7 | COc1ccc(NC(=O)CC2C(=O)N(C)C(=S)N2CCc2ccccc2)cc1 (stereo unspecified) | inconclusive [activator, single point] | –
8 | C(=N/Nc1cc(N2CCOCC2)nc(N2CCOCC2)n1)/c1ccccc1 | inconclusive [activator, partial curve, poor fit] | –
9 | Cn1cnc2c(=O)oc3ccc(S(=O)(=O)N4CCN(c5cccc(C(F)(F)F)c5)CC4)cc3c21 | – | inactive: -15.4%
10 | O=C(Nc1cc(C(F)(F)F)ccc1N1CCOCC1)c1cccnc1Cl | – | inactive: -5.59%
11 | Cc1nc2ccccn2c1-c1ccnc(=S)[nH]1 | inconclusive [activator, single point] | –
12 | Cc1ccccc1-n1c(-c2csc(C)c2C)n[nH]c1=S | active: 4.47 µM | –
13 | CC1Cc2ccccc2N1CC(=O)Nc1ccc2c(c1)OC(F)(F)O2 (stereo unspecified) | inconclusive [activator, partial curve, poor fit] | –
14 | O=C1CCc2cc(S(=O)(=O)N3CCN(c4cccc(Cl)c4)CC3)ccc2N1 | – | inconclusive: 45.5% [activator]
15 | Cc1ccc2[nH]c3c(Cl)ncnc3c2c1 | – | inactive: -42.3%
16 | COc1ccc(-n2cc(C(=O)N(CCN(C)C)Cc3ccccc3)c3ccccc3c2=O)cc1 | – | inactive: 0.0454%
17 | O=C(Nc1nc(-c2ccccc2)cs1)c1ccccc1F | inconclusive [activator, full curve] | –
18 | COc1ccc(CCNC(=O)CSc2nc3nc(C)c(Cc4ccc(C)cc4)c(C)n3n2)cc1OC | – | inactive: -22%
19 | COCc1cn(CC[C@@H]2CC[C@@H](NC(=O)Nc3ccc4c(c3)OCO4)[C@@H](CO)O2)nn1 | – | inactive: 2.13%
20 | Cc1c(Cl)cccc1NC(=S)N1CCCCCC1 | inconclusive [activator, partial curve] | –
21 | Cc1ccc(C)c(CN2CCC(CNC(=O)Nc3ccc(C)c(C)c3)CC2)c1 | inconclusive [activator, single point] | –
22 | CCOC(=O)c1c(NC(=O)/C=C/C(=O)O)sc(C)c1-c1ccc(C(C)(C)C)cc1 | inconclusive [activator, partial curve] | –
23 | O=C(OCc1nc2ccccc2s1)c1ccco1 | inconclusive [activator, partial curve, poor fit] | –

Row | SMILES | Potency | growth rescue
24 | CC(C)(C)NC(=O)NC(=O)COC(=O)Cc1c(F)cccc1Cl | inconclusive [activator, partial curve, poor fit] | –
25 | CCc1ccc(N2C(=O)Nc3ccc(Br)cc3C2(O)C(=O)NCCN(C)C)cc1 (stereo unspecified) | inconclusive [activator, partial curve, poor fit] | –
26 | CC(C)CC(=O)NC(=S)Nc1cc(C(F)(F)F)ccc1N1CCOCC1 | inconclusive [activator, partial curve, poor fit] | –
27 | Cc1cc(C)c(NC(=O)Cn2c(=O)n(Cc3ccc(C(=O)NCc4ccc5c(c4)OCO5)cc3)c(=O)c3ccccc32)c(C)c1 | inconclusive [activator, partial curve, poor fit] | –
28 | Cc1c(C)c2c(OCC(=O)N[C@@H](CC(C)C)C(=O)O)cc3c(c2oc1=O)CCC(C)(C)O3 | – | inactive: -5.81%
29 | COc1ccc(OC)c(C2=NOC(C(=O)Nc3c(C)n(C)n(-c4ccccc4)c3=O)C2)c1 (stereo unspecified) | – | inactive: -7.43%
30 | Cc1ccc(NC(=O)COc2ccccc2)cc1S(=O)(=O)N1CCCCCC1 | – | inactive: 4.98%
31 | COc1cc(/C=C/C(=O)OCC(=O)N2CCCc3ccccc32)ccc1OC(F)F | inconclusive [activator, single point] | –
32 | O=C(Oc1c(CN2CCOCC2)cc(Cl)c2cccnc12)c1ccccc1Br | inconclusive [activator, single point] | –
33 | COc1ccc(CN2C(=O)c3cccnc3C2=O)cc1S(=O)(=O)N(C)c1ccc(C)cc1 | – | inactive: -3.54%
34 | COc1cnc(-c2ccccn2)nc1Sc1ccccc1Cl | active: 11.2 µM | –
35 | Nc1nnnn1/N=C/c1ccc(Br)cc1 | inconclusive [activator, single point] | –
36 | CCNC(=S)Nc1ccc(C)c(Cl)c1 | inconclusive [activator, single point] | –
37 | O=C(CCC1CCCC1)Nc1cc(C(F)(F)F)ccc1N1CCOCC1 | inconclusive [activator, single point] | –
38 | CCCN1C(=O)C(O)(CC(=O)c2ccc(C(C)C)cc2)c2ccccc21 (stereo unspecified) | inconclusive [activator, single point] | –
39 | Cc1cc2nc(C3CCCCC3)c(Cc3ccsc3)n2c(C)c1Br | – | inactive: 26%
40 | CCN1CCN(C(=S)Nc2ccc3nc(N4CCN(CC)CC4)cc(C)c3c2)CC1 | – | inactive: 0.39%
41 | CCc1nc2ccc(C(=O)NCCOc3ccc(OC)cc3)cn2c1N(CCC(C)C)CCN(C)C | – | inactive: -0.576%
42 | O=c1[nH]c(CSc2cccc[n+]2[O-])nc2ccccc12 | inconclusive [activator, single point] | –
43 | Cc1ccccc1-c1n[nH]c(=S)n1/N=C/c1ccc(-c2ccccc2Br)o1 | inconclusive [activator, single point] | –
44 | O=C(Nc1cc(Cl)ccc1-n1cncn1)c1ccc([N+](=O)[O-])o1 | – | inactive: -71%
45 | Cc1cc(NC(=O)CSc2ccc3nnc(-c4cccc(F)c4)n3n2)no1 | – | inactive: 1.19%
46 | COc1cc(OC)c(NC(=O)CCNS(=O)(=O)c2cc(Br)cnc2N)cc1Cl | inconclusive [activator, partial curve] | –
